Test results published in paper PMC6919601, “Identification of Plasmodium dipeptidyl aminopeptidase allosteric inhibitors by high throughput screening” (PLoS ONE, 2019).
Where “and” joins values, the source holds several entries; their conditions need not be identical. Identical values can stand only once. Among all 110,000 compounds or so, about 230 (0.21%) showed an effect of 50% or more. The list shows a part of the results.

biological target: DPAP1 (Plasmodium falciparum, UniProt Q8IIJ9); test: primary screen, percent inhibition; read by cleavage of a fluorogenic dipeptide substrate; higher = more effect of the substance; design: species or system P. falciparum D10 trophozoite lysates; single well
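Also: 30 min substrate incubation versus DMSO and 10 µM JCP410 controls.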

Sequence of DPAP1 (Q8IIJ9 whole entry, looked up): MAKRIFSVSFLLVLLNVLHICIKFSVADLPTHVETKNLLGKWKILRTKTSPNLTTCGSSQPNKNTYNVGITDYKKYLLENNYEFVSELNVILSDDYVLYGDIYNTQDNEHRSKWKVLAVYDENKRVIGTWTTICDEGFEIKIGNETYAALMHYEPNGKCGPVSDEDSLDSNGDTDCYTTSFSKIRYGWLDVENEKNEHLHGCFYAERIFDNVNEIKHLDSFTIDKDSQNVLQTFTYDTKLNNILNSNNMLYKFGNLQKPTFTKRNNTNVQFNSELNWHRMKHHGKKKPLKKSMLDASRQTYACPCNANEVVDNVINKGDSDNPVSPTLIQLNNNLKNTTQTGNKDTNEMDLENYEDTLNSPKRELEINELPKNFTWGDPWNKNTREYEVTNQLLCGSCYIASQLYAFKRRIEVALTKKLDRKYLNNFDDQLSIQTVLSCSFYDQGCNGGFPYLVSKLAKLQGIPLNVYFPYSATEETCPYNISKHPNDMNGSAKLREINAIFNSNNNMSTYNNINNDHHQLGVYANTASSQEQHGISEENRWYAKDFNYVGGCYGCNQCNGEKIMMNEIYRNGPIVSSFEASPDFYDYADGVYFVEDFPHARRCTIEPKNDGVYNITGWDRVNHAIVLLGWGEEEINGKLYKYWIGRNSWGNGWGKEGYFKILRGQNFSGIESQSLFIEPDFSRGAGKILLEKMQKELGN

Going from `CCCCn1c(N)c(C(=O)OCC)c2nc3ccccc3nc21` to `Cn1ncc(Cl)c1C(=O)Nc1nc2ccccc2n1C`, the “% Inhibition @ 10 uM” value falls from 6.08% to 5.31%.

Compared with `N#Cc1ccccc1NC(=O)Nc1ccc2ccccc2c1`, `CC(Oc1ccccc1)C(=O)Nc1ccccc1Cl` (centres unmarked) is lower in “% Inhibition @ 10 uM” value: 0.847% for the first, -2.65% for the second.

Compared with `CC1CCCC(C)N1CCCNC(=O)Cn1ncc2c3ccccc3n(C)c2c1=O` (centres unmarked), `Cc1nc2c(c(C)c1CCC(=O)NC1CCN(Cc3ccccc3)CC1)c(=O)n(C)c(=O)n2C` is higher in “% Inhibition @ 10 uM” value: -3.67% for the first, 0.44% for the second.

Going from `CC(C)COC(C(=O)O)(c1ccccc1)c1ccccc1` to `O=C(NC(c1ccccc1)c1ccccc1)c1ccccc1Br`, the “% Inhibition @ 10 uM” value falls from 1.43% to 0.247%.

Compared with `CCOC(=O)c1sc(NC(=O)c2onc(C)c2Cl)c(C(=O)OCC)c1C`, `CCOC(=O)c1c(NC(=O)CN2CCOCC2)sc2c1CCCC2` is lower in “% Inhibition @ 10 uM” value: -3.45% for the first, -9.49% for the second.

First: CCN(CC)c1ccc(NC(=O)/C=C\C(=O)O)cc1
Second: CC(=O)Nc1ccc(NC(=O)CN(c2ccccc2F)S(=O)(=O)c2ccccc2)cc1
The “% Inhibition @ 10 uM” value of the first is lower: -1.5% for the first, 9.96% for the second.

Going from `CCOC1C(OCC)N(S(=O)(=O)c2ccccc2)CCN1S(=O)(=O)c1ccccc1` (centres unmarked) to `O=C(Cc1cccc2ccccc12)Nc1ccc(S(=O)(=O)N2CCCCC2)cc1`, the “% Inhibition @ 10 uM” value falls from -3.48% to -6.05%.

Compared with `CC1CCc2c(sc(NC(=O)c3ccccc3F)c2C(N)=O)C1` (centres unmarked), `CCOc1ccccc1CNC(=O)C1CCN(c2nn3c(=O)cc(C)nc3s2)CC1` is higher in “% Inhibition @ 10 uM” value: -0.425% for the first, 3% for the second.

Going from `Cc1ccc2nc(NC(=O)C3CCCN(S(=O)(=O)c4c[nH]cn4)C3)sc2c1` (centres unmarked) to `Cc1cccc2sc(NC(=O)CNS(=O)(=O)c3cccs3)nc12`, the “% Inhibition @ 10 uM” value falls from 2.72% to -2.12%.

Going from `Cc1cc2oc(C(=O)NCC(c3ccco3)N3CCCC3)c(C)c2cc1Cl` (centres unmarked) to `COc1ccc(C(CNC(=O)c2cc3ccccc3oc2=O)N2CCCCC2)cc1` (centres unmarked), the “% Inhibition @ 10 uM” value falls from 5.2% to 0.00706%.

Compared with `Cc1ccc2nc3[nH]c(=O)[nH]c(=O)c3nc2c1`, `Cc1cc(/C=C2/SC(=S)NC2=O)c(C)n1-c1ccc(F)cc1` is higher in “% Inhibition @ 10 uM” value: -7.27% for the first, 2.16% for the second.

First: Cc1ccc(N(C(=O)Nc2ccccc2Cl)C(CC(=O)C2CC2)c2ccccc2)cc1 (centres unmarked)
Second: COc1ccc(N(CC(=O)Nc2ccccc2Cl)S(=O)(=O)c2ccc(C)cc2)c(OC)c1
The “% Inhibition @ 10 uM” value of the first is higher: -2.91% for the first, -3.39% for the second.

Compared with `COc1ccc2c(CNCCC3=CCCCC3)c(C(=O)O)n(Cc3ccc(C)cc3)c2c1`, `O=C(Cn1ccc2cc(S(=O)(=O)N3CCCC3)ccc21)NCCc1ccccc1` is lower in “% Inhibition @ 10 uM” value: -0.153% for the first, -0.177% for the second.

First: O=c1oc2c(Br)cc(Br)cc2cc1-c1nc(-c2cccs2)cs1
Second: O=C(Nc1ccc2[nH]c(-c3cccs3)nc2c1)c1ccco1
The “% Inhibition @ 10 uM” value of the first is lower: -0.771% for the first, 0.843% for the second.

Going from `Cc1[nH]c2ccc(Cl)cc2c1CC(=O)O` to `CCCCCCOc1ccc(C(=O)O)cc1C#N`, the “% Inhibition @ 10 uM” value rises from -4.42% to -2.51%.

Compared with `CC(=O)c1c(C)[nH]c(C(=O)N(CCc2ccccc2)Cc2ccccc2)c1C`, `O=C(CCc1nc2ncccc2c(=O)n1Cc1ccccc1)NCCc1c[nH]c2ccccc12` is lower in “% Inhibition @ 10 uM” value: 2.9% for the first, -2.45% for the second.

First: CCCc1nc(N)c(C#N)c(-c2ccco2)c1CC
Second: CCN(CC)CCOc1c(Cl)cccc1Cl
The “% Inhibition @ 10 uM” value of the first is higher: 1.26% for the first, -0.711% for the second.

Compared with `CCC(C)/N=C(\C)C1=C(O)CC(C)(C)CC1=O` (centres unmarked), `COc1ccccc1C1C2=C(O)CC(C)(C)CC2=Nc2nc(C(F)(F)F)nn21` (centres unmarked) is higher in “% Inhibition @ 10 uM” value: -3.19% for the first, -1.62% for the second.

First: COc1ccc(C(=O)CC(=O)c2ccc(Br)cc2)cc1
Second: COc1ccc(N2C(=O)c3ccc(C(=O)O)cc3C2=O)c([N+](=O)[O-])c1
The “% Inhibition @ 10 uM” value of the first is lower: -2.46% for the first, 1.9% for the second.

First: CC1CC(C)(C)NC(=S)N1CCC(=O)N1CCN(Cc2ccccc2)CC1 (centres unmarked)
Second: CCN1CCN(CCC(C)c2ccccc2)CC1 (centres unmarked)
The “% Inhibition @ 10 uM” value of the first is lower: -3.31% for the first, 1.08% for the second.

Compared with `O=C(COc1ccccc1Cl)NCCOc1nc(N2CCOCC2)nc(N2CCOCC2)n1`, `O=S(=O)(c1ccccc1)c1nnn2c1nc(N1CCOCC1)c1cc(Cl)ccc12` is higher in “% Inhibition @ 10 uM” value: -3.08% for the first, 0.291% for the second.

First: Cc1ccc(-c2cc(C(=O)NCc3cccnc3)[nH]n2)cc1
Second: CCC(Cc1ccccc1)NC(=O)CS(=O)(=O)Cc1nc(-c2ccc(C)cc2)oc1C (centres unmarked)
The “% Inhibition @ 10 uM” value of the first is higher: -1.3% for the first, -5.58% for the second.

Compared with `CCOC(=O)c1c(S(=O)(=O)N2CCN(C3CCCCC3)CC2)c(C)n(C)c1C`, `COc1cc(NC2CCC(C)CC2)cc(OC)c1OC` (centres unmarked) is lower in “% Inhibition @ 10 uM” value: 3.03% for the first, -0.0953% for the second.

Going from `Cc1ccc(CC(=O)Nc2ccc(S(=O)(=O)Nc3ncccn3)cc2)cc1` to `O=C(Cn1ncc2c3ccccc3nc-2c1O)NCc1ccc(F)cc1`, the “% Inhibition @ 10 uM” value falls from -2.66% to -4.77%.

`CC(C)CCNS(=O)(=O)c1ccc(-c2cc(C(F)(F)F)no2)s1` was tested, and the “% Inhibition @ 10 uM” value was 1.56%.

For `COCc1cc(C)nc(S)c1C#N`, the “% Inhibition @ 10 uM” value was 43.7% and 44.2%.
